Laboratory results published in publication PMC6755125, “The MLL1 trimeric catalytic complex is a dynamic conformational ensemble stabilized by multiple weak interactions” (Nucleic Acids Research, 2019).

Target: T1, RbBP5NTD (N-terminal WD40 β-propeller domain of RbBP5) (human, UniProt Q15291 10-340)
T1 construct: human RbBP5, N-terminal WD40 domain; Vector pET28-MHL; Monomeric in solution by SAXS; The mouse WD40 domain (PDB 5OV3) is said to be 100% identical; also called N-terminal domain of RbBP5; RbBP5 β-propeller domain; source: E. coli, purified by His-tag
Assay: BLI; Octet Red; GST-tagged MLL_(RBS-SET) on anti-GST biosensors, RbBP5 constructs in solution; PBS, 0.2 mg/ml BSA, 0.1% Tween-20; steady-state analysis
Details: both partners purified

B1: MLL1_(RBS-SET) ([…]), GST-tagged (domain or fragment)
chain: not shown
notes: Cloned in the vector pET28GST-LIC (GenBank EF456739 is the vector's id); Detailed procedures are in the Supplementary Data; also called MLL_(RBS-SET); MLL1-GST; source: E. coli, purified by the N-terminal GST-tag; not shown: GST, N-terminal, kept
With B1 the Kd was ~8 µM.
